Molecular target: recombinant mature myostatin (human) (UniProt O14793)
Sequence of UniProt O14793 (O14793 267-375): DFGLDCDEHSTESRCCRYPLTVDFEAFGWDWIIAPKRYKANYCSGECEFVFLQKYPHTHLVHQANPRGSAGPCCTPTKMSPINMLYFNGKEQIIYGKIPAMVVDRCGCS

IC50 (nM), myostatin-induced luciferase, C2C12 pMARE-luc: 9 nM
B1: Myostatin-2xTN8-19 kc peptibody (Fc fusion)
chain: [letters of human IgG1 Fc left out]GSGSATGGSGSTASSGSGSATGQGHCTRWPWMCPPYGSGSATGGSGSTASSGSGSATGQGHCTRWPWMCPPY

Source: patent US20150175687A1
